# In the supplement of paper PMC10338343:
# ± gives the standard deviation. Only a part is listed here, and it is no random draw.
# Tested on: MIWI (PIWIL1) piRISC loaded with L1MC piRNA (30 nt)
# Assay: pre-steady-state target cleavage rate (min^-1); MIWI and MILI are mouse PIWI proteins and EfPiwi is from a freshwater sponge; tags in brackets are library labels; higher = faster piRNA-guided slicing of the target
# Conditions: guide: L1MC piRNA 5'p-UAACUAAAUACUAUGCAAGCUGUAGGUCCU; auxiliary factor: 500 nM mouse GTSF1
# Procedure, shortened: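 The pre-steady-state cleavage rate was calculated from a burst-and-steady-state fit. Data came from Cleave-'n-Seq, in which […] transcribed, DNA-blocked target RNA library was mixed with 1 nM active affinity-purified piRISC carrying one synthetic guide, with or without 500 nM GTSF1 partner protein, in HEPES–potassium acetate buffer at 33 °C for 0–8 or 0–960 min. Uncleaved targets were sequenced and normalised to depth and to weakly complementary targets, three trials were pooled, and k3 was capped at 0.0001 min^-1.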
# 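Note: 1 nM active piRISC with 0.1 nM target library at 33 °C single turnover.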
row,Sequence,pre-steady-state target cleavage rate
1,UCGACCUACAGGUUGCAUAGUAUUUAGUUA,1.14 ± 0.053
2,UCGUCCUACAGCUUGCAUAGUAUUUUGUUA,0.738 ± 0.024
3,UCCUGGUGCAGCUUGCAUAGUAUUUAGUUA,0.991 ± 0.046
4,UCCACCUACAGCUUGCUAAGUAUUUAGUUA,0.214 ± 0.016
5,UCCUCCUACAGCUUGAAUAGUAUUUAGUUA,1.15 ± 0.036
6,UCCACCUACAGCUUGCAUAGUAUUUAGUA,0.445 ± 0.043
7,UCGACCUACAAGCUUGCAUAGUAUUUAGUUA,1.15 ± 0.046
8,AGGUGCUACAGCUUGCAUAGUAUUUAGUAA,0.603 ± 0.067
9,UGGUCCUACAGCUUGCAUAGUAUUUACAAA,0.209 ± 0.03
10,UCCUGGAACACCUUGGAUAGUAUUUAGUUA,0.286 ± 0.038
11,UCCAGCUACAGCUUGCAUAGUAUUUAGUAA,0.462 ± 0.056
12,UCCUGCUACAGCUUGCAUACUAUUUAGUAA,0.213 ± 0.031
13,UCCUGGAACAGCUAGGAUAGUAUUUAGUUA,0.906 ± 0.064
14,UGGACCUUGAGCUUGCAUAGUAUUUUCAAA,0.0876 ± 0.019
15,UCCUGGAUGACCUUGCAUAGUAUAUAGUUA,0.0296 ± 0.011
16,UCCUCCUACUGCUAGCAUAGUAUUUAGUUA,0.871 ± 0.033
17,UCCUCCUACACGUUGCAUAGUAUUUAGUAA,0.507 ± 0.035
18,UCCACCUACAGGUUGGAUAGUAUUUAGUUA,1.28 ± 0.13
19,UCCUCCUAGAGGUUGCAUAGUAUUUAGUUA,0.632 ± 0.06
20,UCCUGGAACAGCUUGCAUAGUAUUUAAGUUA,0.549 ± 0.034

row,Sequence,pre-steady-state target cleavage rate
1,UCCUGGUACAGCAUGCAUAGUAUUUAGAAA,0.201 ± 0.035
2,UCCUGGAACAGCUUGCAAUGUAUUUAGUUA,0.265 ± 0.02
3,UCCUGGAAGAGCUUGCAUAGUAUUUAGAUA,0.41 ± 0.046
4,UCCUGGAUCUGCUUGCAAAGUAUUUAGUUA,0.259 ± 0.028
5,UCCACGAUCAGCUUGCAUAGUAUUUACAAA,0.368 ± 0.042
6,AGGACCUACAGCUUGCAUUGUAAUUAGUUA,0.417 ± 0.022
7,UCCUGGAUGAGCUUGCAUAGUAUCUAGUUA,0.448 ± 0.043
8,UCCUGGUUCAGCUUGCAUAGUAUUUAGAAA,0.251 ± 0.036
9,UCCACCUACAGCAUGCUUAGUAUUUAGUUA,0.723 ± 0.041
10,UCGACCUACAGCUUGCAUAGUUUUUAGAUA,0.206 ± 0.023
11,UCCUCCUACAGCUUGCAUUGUAUUAAGUUA,0.309 ± 0.026
12,AGGACCUACAGCAUGCAUAGUAUAUAGUUA,0.883 ± 0.073
13,UCCUGGAACAGCUUGCAUAGUAUUUAGAAA,0.268 ± 0.035
14,UCCUGCUACAGCUUGCAUAGUAUUUAGUGUA,0.375 ± 0.045
15,UCCUGGAUGGGCUUGCAUAGUAUUUAGUUA,0.71 ± 0.037
16,UCCUGGAUGUCCUUGCAUAGUAUUUAGUCA,0.0473 ± 0.011
17,UCGACCUACAGGUUGCAUAGUAUUUUGUUA,0.715 ± 0.054
18,UCCUGCUACAGCUUGCAUAGUAUUAAGUAA,0.235 ± 0.033
19,UGGACCUACAGGUUGCAUAGUAUUUACAAA,0.165 ± 0.028
20,UCCUGGUACAGCUUGCAUAGAAUAUAGUUA,0.218 ± 0.036

# Same assay, conditions: guide: L1MC piRNA 5'p-UAACUAAAUACUAUGCAAGCUGUAGGUCCU; auxiliary factor: none (no GTSF1)
row,Sequence,pre-steady-state target cleavage rate
1,UCGACCUACAGGUUGCAUAGUAUUUAGUUA,0.0468 ± 0.0088
2,UCGUCCUACAGCUUGCAUAGUAUUUUGUUA,0.0434 ± 0.0067
3,UCCUGGUGCAGCUUGCAUAGUAUUUAGUUA,0.0644 ± 0.012
4,UCCACCUACAGCUUGCUAAGUAUUUAGUUA,0.00292 ± 0.0016
5,UCCUCCUACAGCUUGAAUAGUAUUUAGUUA,0.0248 ± 0.0051
6,UCCACCUACAGCUUGCAUAGUAUUUAGUA,0.00981 ± 0.0037
7,UCGACCUACAAGCUUGCAUAGUAUUUAGUUA,0.0672 ± 0.014
8,AGGUGCUACAGCUUGCAUAGUAUUUAGUAA,0.0325 ± 0.006
9,UGGUCCUACAGCUUGCAUAGUAUUUACAAA,0.00562 ± 0.0026
10,UCCUGGAACACCUUGGAUAGUAUUUAGUUA,0.00651 ± 0.0022
11,UCCAGCUACAGCUUGCAUAGUAUUUAGUAA,0.0182 ± 0.0027
12,UCCUGCUACAGCUUGCAUACUAUUUAGUAA,0.0115 ± 0.0032
13,UCCUGGAACAGCUAGGAUAGUAUUUAGUUA,0.0058 ± 0.0023
14,UGGACCUUGAGCUUGCAUAGUAUUUUCAAA,0.00307 ± 0.0023
15,UCCUGGAUGACCUUGCAUAGUAUAUAGUUA,0.00883 ± 0.0043
16,UCCUCCUACUGCUAGCAUAGUAUUUAGUUA,0.0164 ± 0.0031
17,UCCUCCUACACGUUGCAUAGUAUUUAGUAA,0.00568 ± 0.0015
18,UCCACCUACAGGUUGGAUAGUAUUUAGUUA,0.0264 ± 0.0047
19,UCCUCCUAGAGGUUGCAUAGUAUUUAGUUA,0.0102 ± 0.0017
20,UCCUGGAACAGCUUGCAUAGUAUUUAAGUUA,0.0597 ± 0.014

row,Sequence,pre-steady-state target cleavage rate
1,UCCUGGUACAGCAUGCAUAGUAUUUAGAAA,0.00336 ± 0.0027
2,UCCUGGAACAGCUUGCAAUGUAUUUAGUUA,0.00723 ± 0.0039
3,UCCUGGAAGAGCUUGCAUAGUAUUUAGAUA,0.0195 ± 0.0054
4,UCCUGGAUCUGCUUGCAAAGUAUUUAGUUA,0.0178 ± 0.0051
5,UCCACGAUCAGCUUGCAUAGUAUUUACAAA,0.00566 ± 0.0024
6,AGGACCUACAGCUUGCAUUGUAAUUAGUUA,0.0158 ± 0.0042
7,UCCUGGAUGAGCUUGCAUAGUAUCUAGUUA,0.0464 ± 0.011
8,UCCUGGUUCAGCUUGCAUAGUAUUUAGAAA,0.00732 ± 0.0027
9,UCCACCUACAGCAUGCUUAGUAUUUAGUUA,0.0103 ± 0.0018
10,UCGACCUACAGCUUGCAUAGUUUUUAGAUA,0.0165 ± 0.0047
11,UCCUCCUACAGCUUGCAUUGUAUUAAGUUA,0.00813 ± 0.0024
12,AGGACCUACAGCAUGCAUAGUAUAUAGUUA,0.0258 ± 0.0058
13,UCCUGGAACAGCUUGCAUAGUAUUUAGAAA,0.0129 ± 0.004
14,UCCUGCUACAGCUUGCAUAGUAUUUAGUGUA,0.0176 ± 0.0042
15,UCCUGGAUGGGCUUGCAUAGUAUUUAGUUA,0.0651 ± 0.015
16,UCCUGGAUGUCCUUGCAUAGUAUUUAGUCA,0.00568 ± 0.0021
17,UCGACCUACAGGUUGCAUAGUAUUUUGUUA,0.0183 ± 0.0032
18,UCCUGCUACAGCUUGCAUAGUAUUAAGUAA,0.00572 ± 0.0029
19,UGGACCUACAGGUUGCAUAGUAUUUACAAA,0.00296 ± 0.0022
20,UCCUGGUACAGCUUGCAUAGAAUAUAGUUA,0.00623 ± 0.0041
